From PubChem BioAssay (NCI)
Several values for one entry are separate records, joined by “and”; a condition that tells them apart may be missing. Equal values may be shown once.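 Growth conditions: 96-well plates. Treatment: test compound, 48 hours, 5 concentrations. Analysis: linear interpolation between bracketing concentrations; unreached endpoints set to highest concentration. Here, GI50 denotes the concentration required for 50% inhibition of growth. Definition used: TGI = concentration required for complete inhibition of growth.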 Numbered stars: 1 amine (or outer) side, 2 acyl side, 3 side chain; on linkers, the order of the positions; unused ones are H or OH. Bridge positions count the residues as written; N and C are the ends. Square brackets hold non-standard residues; d marks the D form. Peptide text beside a SMILES is read from it. I, II: the chains in the order shown. Actinocin(1to9) = Cc1c2oc3c(C)ccc(C(=O)[*:2])c3nc-2c(C(=O)[*:1])c(N)c1=O; NMeV = CN[CH](C(=O)O)C(C)C; Sar = CNCC(=O)O

Test system: NCI-H322M lung
Test: NCI tumour cell line growth inhibition, 48 h

| SMILES | TGI | GI50 |
| --- | --- | --- |
| Cc1cc(C)n(CC(Cn2nc(C)cc2C)=C(/C(Cl)=C(/Cl)Nc2ccc([N+](=O)[O-])cc2)[N+](=O)[O-])n1 | 17.1 µM | – |
| O=[N+]([O-])c1cccc2nc3ccccc3c(NCCCn3ccnc3[N+](=O)[O-])c12 | 0.0126 µM | – |
| C=C1C(=O)O[C@H]2C/C(C)=C/CC[C@@]3(C)O[C@](C)(CC[C@@H]3I)[C@@H](I)C[C@@H]12 | 16.6 µM | – |
| O=c1ccn(CC2(CO)CCC2)c(=O)[nH]1 | > 100 µM | – |
| O=C1NC(=O)C(F)(n2cc(F)c(=O)[nH]c2=O)C(O)N1 (centres undefined) | > 10 µM | – |
| O=c1[nH]c2ccccc2c2ccccc12 | > 100 µM | > 100 µM |
| CNNC1=NS(=O)(=O)c2cc(C#N)c(Cl)cc2S1 | > 10 µM | – |
| CCCCCCCCCCCCOC1C(CNC(=O)C2OC3OC(C)(C)OC3C2NC(=O)Nc2ccc(CC(=O)OC)cc2)OC2OC(C)(C)OC21 (centres undefined) | > 100 µM | > 100 µM |
| O=C1NC(N2CCOCC2)=N/C1=C\c1ccc(Cl)cc1 | > 100 µM | – |
| COc1ccc(NC(=O)C(=O)c2c(O)c3ccc(O)cc3oc2=O)c([N+](=O)[O-])c1 | > 100 µM | – |
| COc1ccc(C(c2cc(OC)c(OC)c(OC)c2)n2ccnc2)cc1O (centres undefined) | > 100 µM | 0.789 µM |
| OCCN1CCN(CCCN2c3ccccc3Sc3ccc(Cl)cc32)CC1 | 20.8 µM | 7.89 µM |
| O=C1C[C@H](c2ccccc2)O[C@@H](c2ccccc2)C1 | > 100 µM | – |
| Cc1nc2ccc(Nc3nc(Cl)nc(N4CCOCC4)n3)cc2n1Cc1ccccc1 | 7.34 µM | 2.61 µM |
| COc1ccc(N=NC(=O)NC(Cc2ccccc2)C(=O)O)cc1 (centres undefined) | > 100 µM | – |
| CC(C)c1[nH]nc(C(N)=O)c1N=NN(C)C | > 100 µM | – |
| N#Cc1cc(C#N)c(N)nc1N | > 100 µM | – |
| CC(=O)C1=C(C)N2C(=NC3=C(CCc4ccccc43)C2c2ccc(F)cc2)S1 (centres undefined) | > 100 µM | – |
| CC1=CC(=O)CC(C)(C)C1/C=C/C(C)=C/C=C/C(C)=C/C=C/C=C(C)/C=C/C=C(C)/C=C/C1C(C)=CC(=O)CC1(C)C (centres undefined) | > 100 µM | – |
| O=C(NC1(c2cc3ccccc3s2)CCCCC1)C1CCC1 | > 100 µM | – |
| CCOC(=O)C(/C(=N/S(=O)(=O)c1cc(C)c(Cl)cc1[S-])[n+]1ccc(N(C)C)cc1)=C(/O)c1ccc([N+](=O)[O-])cc1 | 36.2 µM | – |
| COc1ccc(N=N/C(=N/NC(=O)c2ccc(C)cc2)c2ccc(N(CCC#N)CCC#N)cc2OC)cc1 | > 100 µM | – |
| O=C(Cc1ccc(/C=C/C(=O)c2ncc[nH]2)cc1)Nc1ccc(F)cc1 | 10.2 µM | 3.35 µM |
| c1ccc2sc(SCCSc3nc4ccccc4s3)nc2c1 | > 100 µM | – |

| SMILES | TGI | GI50 |
| --- | --- | --- |
| CN(C)CCCc1cccc2[nH]c3c(c12)CN(C)CC3 | > 100 µM | – |
| C/C(=N\NC(=S)N1CCCCC1)c1ccccn1 | 4.13 µM | 0.0791 µM |
| O=c1[nH]c2nnc(COc3ccc(Cl)cc3Cl)n2nc1Cc1ccccc1 | > 100 µM | – |
| c1ccc2c(Cc3[nH]c4ccccc4c3Cc3c[nH]c4ccccc34)c[nH]c2c1 | 13.4 µM | – |
| O=C(O)c1ccc(C(=O)c2ccccc2C(=O)O)cc1C(=O)O | > 100 µM | – |
| C=CCN(c1cc(OCc2ccccc2)c2[nH]cc(C)c2c1)S(C)(=O)=O | > 100 µM | – |
| O=c1cc(N=Nc2ccc(Br)cc2)[nH]c(=S)[nH]1 | > 100 µM | – |
| CCCCNC(=O)c1cc2c(cc1Cl)Sc1nccn1S2(=O)=O | > 100 µM | – |
| Nc1c(C(=O)O)nnc2cc(Cl)c(Cl)cc12 | > 100 µM | – |
| O=c1[nH]c(Nc2ccc(Cl)c(C(F)(F)F)c2)nc2nc[nH]c12 | > 100 µM | – |
| Cn1c(=O)[nH]c2nncnc2c1=O | > 459 µM | – |
| O=C(O[C@@H](/C=C/c1ccccc1)P1(=O)N(Cc2ccccc2)[C@H]2CCCC[C@@H]2N1Cc1ccccc1)c1ccccc1 | > 100 µM | – |
| O=c1[nH]c2ccccc2c(=O)n1/N=C/c1ccc(O)cc1 | > 100 µM | – |
| N.N.N.N.N.[Co+3].[I-].[N-]=[N+]=[N-] | > 100 µM | > 100 µM |
| Nc1ccc2c(O)cc(=O)[nH]c2n1 | > 100 µM | – |
| COc1ccc(C/C(=N/O)C(=O)NCCc2cc(Br)c(OCCCN(C)C)c(Br)c2)cc1Br | 30.5 µM | – |
| CCOC(=O)/C(=C/N1CCN(C(=O)c2ccco2)C1=S)C(=O)c1ccccc1 | > 50 µM | 14.2 µM |
| O=C1CSCc2sccc21 | > 100 µM | – |
| CS(=O)(=O)Nc1cncc(-c2ccc3ncnc(Nc4ccc(F)c(Cl)c4)c3c2)c1 | 7.38 µM | 0.427 µM |
| COc1ccc(C2CC(c3cccc(Nc4ccnc5cc(Cl)ccc45)c3)=NN2C=O)cc1 (centres undefined) | > 100 µM | > 100 µM |
| Cc1ccc(S(=O)(=O)OCCn2cnc3nc(NC(=O)c4ccccc4)[nH]c(=O)c32)cc1 | > 100 µM | – |
| N#Cc1c(-c2ccc(Cl)c(Cl)c2)c(-c2ccc(Cl)c(Cl)c2)nn(CC(=O)O)c1=O | > 100 µM | – |
| COC(=O)C(NC(=O)C(CC(=O)OC(C)(C)C)NC(=O)OC(C)(C)C)C(O)c1ccccc1 (centres undefined) | > 100 µM | – |
| OC(c1ccc(F)cc1)C(F)(F)c1nc2ccccc2o1 (centres undefined) | > 100 µM | – |

| SMILES | TGI | GI50 |
| --- | --- | --- |
| Nc1ncnc2c1ncn2[C@]1(CO)C=C(CO)C(O)C1O (some centres undefined) | > 100 µM | – |
| CCN(CC)C(=O)Cc1c(C(=O)N(CC)CC)c(=O)nc2sccn12 | > 100 µM | – |
| CC[C@H](C)[C@H]1NC(=O)[C@@H](NC(=O)[C@@H](CC(C)C)N(C)C(=O)C2CCCN2C(=O)[C@H](C)O)[C@@H](C)OC(=O)[C@H](Cc2ccc(OC)cc2)N(C)C(=O)[C@@H]2CCCN2C(=O)[C@H](CCCCNC(=O)OCc2ccccc2)NC(=O)[C@H](C)C(=O)[C@H](C(C)C)OC(=O)C[C@@H]1O (some centres undefined) | 16.7 µM | – |
| N#Cc1cccc2c1Nc1ccccc1S2 | > 100 µM | – |
| CCN(CCCN(C)C)Cc1cc(I)cc(C)c1O | 85.3 µM | 28.3 µM |
| Cc1nc([P+](c2ccccc2)(c2ccccc2)c2ccccc2)c(Sc2sc(-c3ccccc3)nc2[P+](c2ccccc2)(c2ccccc2)c2ccccc2)o1 | 7.63 µM | 2.32 µM |
| CCOC(=O)c1nc2ccc(C(F)(F)F)cc2nc1NCc1ccc(OC)cc1 | > 100 µM | – |
| CCOc1cc(C2SCC(=O)N2c2ccc(Oc3ccc(Cl)cc3)c(Cl)c2)ccc1O (centres undefined) | 32.3 µM | – |
| Cn1cc(C(=O)c2ccccc2)c2ccccc2c1=O | > 100 µM | – |
| COc1ccc(/C=C(/C#N)C(N)=O)c(OC)c1 | > 100 µM | – |
| O=C(CC(Cl)=C(Cl)Cl)Nc1ccccc1 | > 100 µM | > 100 µM |
| COc1ccc2c(c1)/C(=C\c1c(-c3cc(OC)ccc3OC)nc3sc(C)cn13)C(=O)N2C | > 100 µM | 56.9 µM |
| CCCCCN(CCCCC)C(=O)[C@@H](CCC(=O)O)NC(=O)c1cc2ccccc2[nH]1 | > 100 µM | – |
| COc1cc2oc(=O)ccc2cc1C(=O)CC(C)C | > 100 µM | – |
| Cc1nc(N)c(N2CCN(C(=O)O)CC2)c(=O)[nH]1 | > 100 µM | – |
| CN(C)C=Nc1ccn(CCO)c(=O)n1 | > 100 µM | – |
| CC(=O)OC1CC[C@@]2(C)C(=CC[C@@H]3[C@@H]2CC[C@]2(C)Nc4nn(S(C)(=O)=O)cc4C[C@@H]32)C1 (some centres undefined) | > 100 µM | – |
| Cc1cc(O)c(=O)cc2c1C[C@H]1CC(C)(C)/C=C/C[C@]3(C)Oc4cc(=O)c(O)cc(C)c4C[C@H]3C[C@H](O)[C@@]1(C)O2 | > 100 µM | 0.0326 µM |
| O=c1c2c(=NCCN3CCCC3)cc3c(=O)n(CCCN4CCOCC4)c(=O)c4c(-c5ccc(CN6CCCC6)cc5)cc(c(O)n1CCCN1CCOCC1)c2c4-3 | 0.306 µM | 0.0371 µM |
| CC(=O)Nc1ccc2c(c1)C(c1ccccc1Cl)=Nc1c(n[nH]c1C)N2 | > 25 µM | > 22.2 µM |
| O=C(CSc1nc2ccc([N+](=O)[O-])cc2s1)c1ccc2ccccc2c1 | > 100 µM | – |
| C[N+]1(CCC(=O)c2ccco2)CC2CCC(CC2)C1 (centres undefined) | > 100 µM | – |
| NC(Cc1ccc(OCc2ccccc2)cn1)C(=O)O (centres undefined) | > 100 µM | – |
| Cc1cc2nc3c4cc(O)ccc4n(CCN(C)C)c3nc2cc1C | 6.59 µM | 0.614 µM |

| SMILES | TGI | GI50 |
| --- | --- | --- |
| COC(=O)CC(NC(=O)OCc1ccccc1)C(C(C)=O)C(=O)OCc1ccccc1 (centres undefined) | > 31.6 µM | – |
| COC(=O)C1CCc2c1c(=O)n1c([nH]c3ccccc31)c2C#N (centres undefined) | > 100 µM | – |
| O=S(=O)(NCCCNc1nccc(-c2c(-c3ccc(O)cc3)nc3sccn23)n1)c1ccc(F)cc1 | 12.6 µM | 3.21 µM |
| Cc1cccc(N(C)C(=O)[C@@H]2[C@H](O)CCN2c2nc(C)cc(C(F)(F)F)c2C#N)c1 | > 100 µM | 27 µM |
| CCN(CC)c1ccc(/C=N/NC(=O)CSc2nc3ccccc3c(=O)n2CCc2ccc(S(N)(=O)=O)cc2)c(O)c1 | > 100 µM | 2.23 µM |
| Clc1ccccc1/C=c1\nc(-c2ccccc2)n2c1nc1ccccc12 | > 100 µM | – |
| COc1cc(/C=C\c2cc(OC)c(OC)c(OC)c2)cc(N/C=C\C(=O)c2ccc(OC(F)(F)F)cc2)c1OC | > 100 µM | 11 µM |
| COc1cc2c(cc1OC)[C@@H](Nc1ccc(C#N)cc1)C1COC(=O)[C@@H]1C2c1cc(OC)c(O)c(OC)c1 (some centres undefined) | 85.9 µM and > 100 µM | 4.79 µM and 7.72 µM |
| O=C(c1ccccc1)c1c(CC(O)c2ccccn2)n(C(=O)c2ccccc2)c2ccccc12 (centres undefined) | 84.3 µM | – |
| N#CC(C(=O)c1cccnc1Cl)c1nc2cc(C(F)(F)F)ccc2s1 (centres undefined) | > 100 µM | – |
| COc1ccc(C2=C(Cl)c3cc(OC)c(OC)cc3C2OC)cc1OC (centres undefined) | > 100 µM | – |
| CCOC(=O)c1c(N)n(-c2ccccc2)c(=O)n(-c2ccccc2)c1=O | > 100 µM | – |
| CC(C)(CN1CCCCC1)C(=O)/C=C/c1ccc(/C=C/C(=O)C(C)(C)CN2CCCCC2)cc1 | 2.33 µM | – |
| O=c1[nH]c(=O)n(COCc2ccccc2)c2ccsc12 | > 100 µM | – |
| C[C@@H](c1ccccc1)n1c(N)c(-c2ccccn2)c2ccc([N+](=O)[O-])cc2c1=O | > 100 µM | – |
| CCOC(=O)c1cc(C(=O)c2cc(OC)c(OC)c(OC)c2)n2ncccc12 | > 100 µM | 0.694 µM |
| O=c1oc2ccccc2nc1/C=C(\O)c1ccc(Cl)cc1 | > 100 µM | – |
| CC(=O)c1ccc2c(c1)c1cc(C(C)=O)ccc1n2CCNC(C)C | 8.42 µM | 0.412 µM |
| COC(=O)C(Cc1cc(OC)c(OC)c(OC)c1)C(=O)OC | > 320 µM | – |
| N=C1OC(CN2CCN(c3ccccc3)CC2)CN1C(=S)Nc1ccccc1 (centres undefined) | > 100 µM | – |
| CCC(C)C1NC(=O)C(NC(=O)c2c3nc4c(C(=O)NC5C(=O)NC(C(C)CC)C(=O)N6CCCC6C(=O)N(C)CC(=O)N(C)C(C(C)C)C(=O)OC5C)ccc(C)c4oc-3c(C)c(=O)c2N)C(C)OC(=O)C(C(C)C)N(C)C(=O)CN(C)C(=O)C2CCCN2C1=O (centres undefined) (I: TIP[Sar][NMeV] / II: TIP[Sar][NMeV]; ester I:1-I:C, II:1-II:C; linker I:N-II:N via Actinocin(1to9); configuration not given here) | 0.0988 µM | – |
